Test results taken from PubChem BioAssay AID686979 (National Center for Advancing Translational Sciences (NCATS), 2013).
In all, about 420,000 compounds went through this assay and about 50,000 (12%) were called active. Inconclusive means that the source gave no clear call. Such entries were picked first, then a sample of the others. The call rests on the fitted dose curve; in most records, active means well fitted inhibition curve with a large enough effect; inconclusive means small, poorly fitted or top-dose-only effect; inactive means flat fitted curve, though single readings scatter. Potencies of inconclusive entries are left out as doubtful fits.
On the % scale 0 is the no-effect control and ±100 the full control effect; potency means the concentration at half of the fitted maximal effect; tags describe the fitted curve by direction and shape.

Assay: qHTS for Inhibitors of human tyrosyl-DNA phosphodiesterase 1 (TDP1): qHTS in cells in presence of CPT; further: nearly all actives have a fitted effect of over 55% in size
Conditions: chicken DT40 Tdp1-/-;hTDP1 cells + 20 nM CPT, ATP luminescence, 48 h; activity change, negative = growth inhibition: at 46.2 µM (top of the series) unless noted
Method in brief: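 Cell growth measured by CellTiter-Glo luminescence after a minimum 48 h, 37 C compound exposure with 20 nM CPT in Tdp1-knockout DT40 cells stably expressing hTDP1, seeded 400/well; qHTS titration format.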
In the case of `COc1ccc(C(=O)OCC(=O)Nc2cccc(C(C)=O)c2)c(OC)c1OC`, the Potency is reported as inconclusive [inhibitor, single point]. For `CCOc1ccc(-n2c(=S)sc3c(=O)[nH]c(SCC(=O)NCc4ccco4)nc32)cc1`, the “activity change, negative = growth inhibition” value was inactive: 0.249%. In the case of `COc1ccc(-c2noc(COc3ccccc3OC)n2)cc1OC`, the Potency is reported as active: 16.4 µM. With `COc1ccc(N=Cc2c(O)ccc3ccccc23)cc1` the “activity change, negative = growth inhibition” value was inactive: -25.1%. With `CCOc1ccccc1CNC(=O)c1sc2ncccc2c1-n1cccc1` the Potency was active: 14.6 µM. With `CC(C)CC(=O)Nc1ccc2nc(SCC(=O)N3CCc4ccccc43)sc2c1` the Potency was active: 5.17 µM. For `CCOC(=O)c1c(-c2ccccc2)csc1NC(=O)C(C)NCCCN1CCOCC1` (stereo not given), the Potency was inconclusive [inhibitor, single point]. In the case of `CC(Sc1nnc(-c2ccco2)n1N)C(=O)NCc1ccc2c(c1)OCO2` (stereo not given), the “activity change, negative = growth inhibition” value is reported as inactive: -10.1%. In the case of `CCOC(=O)C1CCCN(S(=O)(=O)c2cc(-c3cc(C)no3)ccc2OC)C1` (stereo not given), the Potency is reported as inconclusive [inhibitor, single point]. With `COc1ccc(C(=O)Nc2nc(C)cs2)cc1S(=O)(=O)N1CCOCC1` the “activity change, negative = growth inhibition” value was inactive: 3.44%. With `COC(=O)c1ccc(C)c(NC(=S)NCc2ccc(Cl)cc2)c1` the Potency was inconclusive [inhibitor, single point]. In the case of `Cc1c(C(=O)NCc2cccc(Cl)c2)sc(=O)n1Cc1ccc(C(=O)N(C)C)cc1`, the Potency is reported as active: 16.4 µM. In the case of `CC(=O)Nc1ccc(C2=NNC(=NCC3CCCO3)SC2)cc1` (stereo not given), the Potency is reported as inconclusive [inhibitor, single point]. With `COc1ccc(C[C@H]2CN3C(=NC[C@@H]3C(C)C)N2CCNC(=O)CCC2CCCCC2)cc1` the Potency was active: 8.2 µM. In the case of `CCN1CCc2c(sc(NC(=S)NC(=O)c3cccc(F)c3)c2C(N)=O)C1`, the Potency is reported as inconclusive [inhibitor, single point]. With `CCOc1cc(C2c3c(-c4cc(C)ccc4O)n[nH]c3C(=O)N2CCCOC(C)C)ccc1O` (stereo not given) the Potency was inconclusive [inhibitor, single point]. With `OC(COCC1COc2ccccc2O1)CN1CCN(c2ccccn2)CC1` (stereo not given) the Potency was inconclusive [inhibitor, partial curve, poor fit]. With `C=CCn1c(SCc2ccccc2)nc2c1c(=O)[nH]c(=O)n2C` the Potency was inconclusive [inhibitor, single point]. For `COc1ccccc1NC(=O)c1cc2c(=O)n(C)c3ccccc3c2n1C`, the Potency was inconclusive [inhibitor, single point]. In the case of `COC(=O)CCc1sc(Nc2ccc(Br)cc2)nc1-c1ccc(OC)cc1`, the Potency is reported as active: 23.1 µM. With `NC(=O)C1Cc2ccccc2CN1S(=O)(=O)c1ccc(Cl)s1` (stereo not given) the activity change, negative = growth inhibition was inconclusive: 6.47% [inhibitor]. For `COc1ccc(CC2(CO)CCN(Cc3cnn(-c4ccccc4)c3)CC2)cc1`, the activity change, negative = growth inhibition was inconclusive: -32.3% [inhibitor]. In the case of `CC1CCN(Cc2nc(Cl)c3c4c(sc3n2)CCC4)CC1`, the Potency is reported as active: 18.4 µM. For `O=C(COC(=O)c1cc(-c2cccs2)nc2ccccc12)c1ccc(F)cc1`, the Potency was inconclusive [inhibitor, single point]. With `NNC(=O)c1cccc(COc2ccc(Br)cc2)c1` the Potency was active: 20.6 µM. For `O=C(CSc1nc2ccccc2s1)NNC(=S)Nc1ccc(Br)cc1`, the Potency was inconclusive [inhibitor, single point]. For `CN1CCN(Cc2nc3ccccc3c(=O)n2Cc2nc(-c3ccc([N+](=O)[O-])cc3)cs2)CC1`, the Potency was active: 18.4 µM. With `CCCn1c(C)cc(/C=C(\C#N)C(=O)OCC(=O)NC(=O)NC(C)(C)C)c1C` the Potency was inconclusive [inhibitor, single point]. For `CCc1nc2ccc(C(=O)N3CCN(c4ccc([N+](=O)[O-])cc4)CC3)cc2nc1CC`, the Potency was active: 16.4 µM. With `CCn1cc(/C=C(\NC(=O)c2ccc(OC)c(OC)c2)C(=O)NCCN2CCOCC2)c2ccccc21` the Potency was inconclusive [inhibitor, partial curve]. With `Cc1sc(NC(=O)CSc2nnc(COc3ccc(Cl)cc3)n2C)c(C#N)c1C` the Potency was inconclusive [inhibitor, single point]. With `O=C(COC(=O)c1ccc(O)cc1)Nc1ccc2c(c1)OCO2` the Potency was inconclusive [inhibitor, single point]. With `CC(=O)c1cccc(NC(=O)c2sc3nc4n(c(=O)c3c2C)CCCC4)c1` the Potency was inconclusive [inhibitor, single point]. In the case of `O=C(NC1CCCC1)C1c2ccccc2OCC(=O)N1Cc1cccnc1` (stereo not given), the “activity change, negative = growth inhibition” value is reported as inactive: 3.24%. In the case of `CCOc1ccc(-n2c(SCC(=O)Nc3cc(C)ccc3C)nc3c([nH]c4ccccc43)c2=O)cc1`, the Potency is reported as active: 13 µM. In the case of `Cc1cccc(-c2cc3nc4c(c(N5CCCC(O)C5)n3n2)CCC4)c1` (stereo not given), the Potency is reported as inconclusive [inhibitor, partial curve]. With `CCOc1ccc(NC(=O)CN(C)CC(=O)NC2CCCc3ccccc32)cc1OCC` (stereo not given) the “activity change, negative = growth inhibition” value was inactive: -20.1%. With `N#CC(C#N)=C1C=CC=CN1/C(=C\c1ccccc1)C(=O)c1cccs1` the Potency was active: 1.03 µM. With `COc1cc(-c2nnc(-c3cccnc3)o2)cc(OC)c1OC` the Potency was inconclusive [inhibitor, single point]. For `O=C(N/N=C/c1sc(=O)n(Cc2ccc(Br)cc2)c1Cl)c1ccco1`, the Potency was inconclusive [inhibitor, single point]. With `O=C(Nc1ccc(F)cc1)N1CCn2c(nc3ccccc32)C1` the Potency was inconclusive [inhibitor, single point]. For `N#Cc1cccc2cccc(S(=O)(=O)N3CCOCC3)c12`, the “activity change, negative = growth inhibition” value was inactive: 10.9%. With `CCCCn1nc(C(=O)Nc2ccc(S(=O)(=O)Nc3ncccn3)cc2)c2ccccc2c1=O` the Potency was inconclusive [inhibitor, partial curve, poor fit]. For `COc1ccc(CNC(=O)c2sc3nc4n(c(=O)c3c2C)CCCC4)cc1`, the Potency was inconclusive [inhibitor, single point]. In the case of `Cc1sc2ccccc2[n+]1CC(=O)c1ccccc1`, the Potency is reported as inconclusive [inhibitor, single point]. In the case of `O=C(Cn1nnc2ccccc2c1=O)N[C@H](C(=O)O)c1ccccc1`, the Potency is reported as inconclusive [inhibitor, single point]. In the case of `O=C(Nc1cc(-c2ccccc2)sc1C(=O)O)c1cccc(F)c1`, the Potency is reported as inconclusive [inhibitor, single point]. With `COc1ccc(-n2c(N)c(C(=O)NCc3ccco3)c3nc4ccccc4nc32)c(OC)c1` the Potency was active: 23.1 µM. In the case of `N#CC1=C(N)Oc2c(oc(CO)cc2=O)C1c1ccsc1` (stereo not given), the “activity change, negative = growth inhibition” value is reported as inactive: 1.3%. In the case of `Cc1cc(C(F)F)n2ncc(C(=O)NCCc3ccc(Cl)cc3)c2n1`, the Potency is reported as inconclusive [inhibitor, single point]. For `COc1cc2nc3n(c(=O)c2cc1OC)-c1cc2ccccc2cc1C(=O)NC3Cc1ccccc1` (stereo not given), the Potency was inconclusive [inhibitor, single point]. For `Cc1ccc(Cn2cc(S(=O)(=O)c3cccc(C)c3)c(=O)c3cc(F)c(N4CCOCC4)cc32)cc1`, the Potency was inconclusive [inhibitor, single point]. With `O=C(C1=NN(c2ccccc2)C2C(=O)N(c3ccccc3Cl)C(=O)C12)c1ccccc1` (stereo not given) the “activity change, negative = growth inhibition” value was inactive: 0.18%. With `CCCCCC(=O)Nc1cccc(C2=NOC3(C2)C[C@@H](C(N)=O)N(C(=O)c2ccc(Cl)cc2)C3)c1` (stereo not given in full) the Potency was inconclusive [inhibitor, single point]. In the case of `COc1cccc(Cc2nc3ccccc3nc2SCC(=O)Nc2cccc(C)c2)c1`, the Potency is reported as inconclusive [inhibitor, single point]. In the case of `Cc1cc(C)n(CC(=O)N/N=C/c2ccc([N+](=O)[O-])s2)n1`, the Potency is reported as active: 23.1 µM. In the case of `COc1ccc2[nH]c3c(Cl)ncnc3c2c1`, the “activity change, negative = growth inhibition” value is reported as inactive: 7.39%. For `Cc1ccc(CS(=O)(=O)c2ccc(C(=O)N3CCN(c4ccccn4)CC3)cc2[N+](=O)[O-])cc1`, the Potency was active: 9.2 µM. With `O=C(NC1CC2CCCC(C1)N2C(=O)N1CCCCC1)C1CCCCC1` (stereo not given) the Potency was inconclusive [inhibitor, single point]. In the case of `COc1ccc(NC(=S)NC(NC(=O)/C=C/c2ccccc2)C(Cl)(Cl)Cl)cc1` (stereo not given), the Potency is reported as inconclusive [inhibitor, single point]. In the case of `Cc1ccc(C2C(C(=O)c3cc4ccccc4o3)=C(O)C(=O)N2c2cc(C)on2)cc1` (stereo not given), the Potency is reported as inconclusive [inhibitor, single point]. In the case of `CCOC(=O)c1cnn(-c2nc(-c3cccc(F)c3)cs2)c1C(F)(F)F`, the Potency is reported as inconclusive [inhibitor, single point]. For `O=C(CNC(=O)c1ccc(F)cc1)c1ccccc1`, the “activity change, negative = growth inhibition” value was inactive: 1.2%. With `Cc1cc(C(=O)NC2CCCc3c2cnn3-c2ccccc2F)nc(C)n1` (stereo not given) the Potency was inconclusive [inhibitor, single point]. In the case of `CCCCCCCCOC(=O)CCn1[nH]c(=O)c2ccccc2c1=O`, the “activity change, negative = growth inhibition” value is reported as inactive: -17.8%. For `C/C(=N\Nc1nnc(-c2ccccc2)c(-c2ccccc2)n1)c1cccc([N+](=O)[O-])c1`, the Potency was active: 7.31 µM. In the case of `Cc1cccc(NC(=O)C2CCN(S(=O)(=O)c3ccc4c(c3)NC(=O)CO4)CC2)c1C`, the “activity change, negative = growth inhibition” value is reported as inactive: -24.8%. In the case of `CCCn1c(SCc2cc(=O)[nH]c3ccccc23)nc2c1c(=O)n(C)c(=O)n2C`, the activity change, negative = growth inhibition is reported as inconclusive: -32.7% [inhibitor]. In the case of `CN(CC(=O)N1CCCC1)S(=O)(=O)c1ccc2ccccc2c1`, the Potency is reported as inconclusive [inhibitor, partial curve, poor fit]. In the case of `Oc1ccccc1N1CCN(C(c2ccccc2)c2ccccc2)CC1`, the Potency is reported as inconclusive [inhibitor, single point].
